Results as given in the RNAGym collection of RNA variant scans (doi:10.7554/elife.90254).
Read counts are not given, so values of variants with three or more changes are uncertain.

B1: OR4K15 (parent)
chain: GUUAACGGUCAUAGGCCAUGGAAACUAGGAGCACCAUUUCGCUGCCAGUGAAGAAAUGAACAAAGAAAAUCUGGGCCAGGCAGGCAUCAAAAGAAAUAGUCUUGCGCUCAACCAGAAAGUCUGUAAUCAUUUUAAGGGUA

Variants of: B1
Assay: self-cleavage, relative activity (ratio to wild type); higher = more cleavage; in vitro, sequencing; the parent is a self-cleaving ribozyme

Variant	self-cleavage
A4G A63G A92G	0.94
A95G G106U A114U	0.02
A96G A114U U131C	0.02
U9C U108C U122C	0
A33G U38C A129G	0.99
A60G A63G A114G	1.18
U12G A96G U100C	1.69
U19C A24G A92G C112U	0.01
A94G U103C U132A	0.32
A30G U38C A62G A94G U108G A117G	0.01
A47C U70C A90G	0.86
A11G A13G A62U G83U A110U A116G	0.41
U2A U43C A94G G137C	1.57
U26G G41A A94G	1.13
U26A U39C A62U A86G U122C	1.26
A69G C112U A135U	0.02
A24U A96G U97C	1.28
U12G A68G U70C A96G	0.59
U39A A54U U70C G80A A92G	0.13
A59G A90U U102C A116G	0.93
A52G A66G U87C U100C A117G	1.18

Variant	self-cleavage
U122A U127C A129U	0.36
A23U A27G A95G U132C	1.54
A22G U39C A55G A78G A126G	0.25
A51U A55G G75A U103C	0.08
A30G U122C A129G	0.55
A78C A86G U97C A114U A129G A135G	0
U43C A47U A63G G83A U103C A114U A126C	0
U12C A30U A66G U87C C88A	0.94
U38C U43C A60G U70A A118U	0.35
U9C A68G U132C	1.64
U72C A90G A111U	0.02
A24G A64G U102C A117G U127A U130C	2.54
U3C U70A A118G A126G	0.34
U38A A54U A117U	1.2
U49A A90G U97A U131C	1.02
A78G C85G A129G	0.06
A23G A60G U124C	1.15
U9A U19C A95G U108C A118G A125U	0
U19C U57C A92G	0.33
U3A A114G U120C	0.27
A91G A118G G137A	0.22

Variant	self-cleavage
G44A A52G A92U A140G	2.56
A5G G31A A78U	0.27
A62G U100C C105U A110G	0.05
A5G A62G U87C A90G U102C G106A	0.04
A64U A86U U100C	0.97
A13U A116G A118G A129U	0.32
U19C A22G U43C A59G A69G A82C	0.27
G20A A54G A55G G80A	0.16
A22G A47G U87C	0.42
A36G U49C G106A	0.01
A24G A59G A118G	0.51
A24U A110G U122C	0.09
U9C A23G A47G A86G U103C	0.25
A23G A95G U103C U124C	0.53
A33G A36U A94G A111G	0.04
G53A A63G G75C G79U A118G	0.05
U37C A64U A126G U130C	0.51
U2G A51U A56G U57C A118G	0.25
A24G A78G U124C	0.06
G14A A23G A54G A63G A66U A98G	0.41
A55G U57C A66G	0.68

Variant	self-cleavage
U2C A30G A62G A67G	1.09
A52G A59G U127A	1.15
A27G A36U A47U A52G C85U A118G A129U A135G	0.02
G14A A23G A33U A116G U130C	0.68
A33U A59G A116U U131C	0.36
A13U A56G U103C G106A U124C	0
A30G A82U A114G U132C	0.03
U39C G41A A95G	2.32
A64G U102A A117G U127A	1.68
A86G A90C A129U	0.81
U19C A47U U57C	0.55
U37C A126G U131C	1.29
U26C A52G A86G C101U A117G A135G	0.03
U12A A13G A117G U122C	0.81
A89G U108C U127C	0
U9C A60G G74U	0.12
A24G A66U A92U	1.5
A24G A60G U131C	1.71
U12A A52G A89U A110U	1.76
A33G A55G A89G A126G	0.45
